# In PubChem BioAssay AID463173 (ICCB-Longwood Screening Facility, Harvard Medical School, 2010):
# Out of some 52,000 compounds screened, about 1,700 (3.3%) were called active. No stated cut-off is given here; in the data, active means survival mostly below about 52% (no sharp cut-off); inactive means mostly above about 56%. This is one part of the list.
# Tested on: Wild type
# Experiment: growth inhibition of S. aureus wild type versus tarO mutant, primary screen, teichoic acid synthesis inhibitors, RN4220, OD600 (AID 463173)
# Conditions: S. aureus RN4220 wild type/DeltatarO growth, OD600, 18 h, active compounds read low, screened at 18.75 µg/mL (by protocol)
row,Structure (SMILES),survival
1,Cc1ccc2c(c1)sc1nc(-c3cc4ccccc4oc3=O)cn12,inactive: 76%
2,CCOC(=O)c1ccccc1NC(=O)CN1C(=O)CC(c2ccco2)Sc2ccccc21 (centres undefined),inactive: 79%
3,Cc1ccc(C(=O)Nc2ccc(C(=O)OCc3cc(=O)n4nc(C5CC5)sc4n3)cc2)cc1,inactive: 84%
4,Cc1oc(-c2ccc(Cl)cc2)nc1Cn1c(=O)cc(C)c2c(C)nn(-c3cccc(F)c3)c21,inactive: 72%
5,COc1ccc(N2CCN(c3c4c(nc5nncn35)CCC4)CC2)cc1,inactive: 82%
6,CCn1cc(C(=O)N2CCN(c3ccc(F)cc3)CC2)c(=O)c2cc(S(=O)(=O)N3CCOCC3)ccc21,inactive: 90%
7,COc1ccc(CCNC(=O)c2cc(Nc3cc(C)cc(C)c3)nc3ccccc23)cc1OC,inactive: 131%
8,CCc1ccccc1NC(=O)CSc1ncc(S(=O)(=O)c2ccccc2)c(N)n1,inactive: 71%
9,CCOc1cc(CNC(=O)CCCn2c(=O)c3cccn3c3cccnc32)cc(OCC)c1OCC,inactive: 78%
10,CC(=O)Nc1cccc(NC(=O)CSc2cn(CC(=O)N(C(C)C)C(C)C)c3ccccc23)c1,inactive: 94%
11,CCCN(CCC)S(=O)(=O)c1ccc(C)cc1,inactive: 107%
12,Cc1c(Cl)cccc1Nc1nn2c(=O)c3ccc(C(=O)NCCc4ccccc4)cc3nc2s1,inactive: 120%
13,CCN(c1cccc(C)c1)S(=O)(=O)c1ccc2c(c1)NC(=O)CCS2,inactive: 71%
14,O=C(COCc1cc(-c2cccs2)on1)Nc1cccc(Cl)c1Cl,inactive: 59%
15,CCOc1ccc(NC(=O)c2cc3c(n(-c4ccc(OC)cc4)c2=O)CC(C)(C)CC3=O)cc1,inactive: 73%
16,COc1ccccc1Cn1c(CNS(=O)(=O)c2ccccc2Cl)nc2cccnc21,inactive: 63%
17,CC(=O)c1cccc(NC(=O)c2cccn2-c2nnc(N3CCCCC3)s2)c1,inactive: 83%
18,CCCC(C)C(=O)Nc1nc2ccccc2s1 (centres undefined),inactive: 120%
19,O=C(COc1ccc(S(=O)(=O)NC2CCCCC2)cc1Cl)NCc1ccccn1,inactive: 93%
20,O=C(NC1CC(=O)N(c2ccccc2)C1)c1ccc(Br)o1 (centres undefined),inactive: 76%
21,COc1ccc2cc(C#N)c(SCC(=O)N3c4ccccc4CC3C)nc2c1 (centres undefined),inactive: 116%
22,O=C(NCCCN1CCN(c2cccc(Cl)c2)CC1)Nc1ccccc1C(F)(F)F,inactive: 80%
23,COc1cccc(CNC(=O)C2CCN(c3nn4c(=O)cc(C)nc4s3)CC2)c1,inactive: 84%

row,Structure (SMILES),survival
1,Cc1cccc(N(CC(=O)NCCSCc2ccc(Cl)cc2)S(C)(=O)=O)c1C,inactive: 56%
2,NC(=O)CCc1c[nH]c2ccccc12,inactive: 104%
3,CCOC(=O)Cn1c(=O)oc2cc(S(=O)(=O)N3CCN(c4ccccc4F)CC3)ccc21,inactive: 84%
4,COc1ccc(NC(=O)c2nnn(Cc3nc(-c4cc(OC)c(OC)c(OC)c4)oc3C)c2C)cc1,inactive: 72%
5,CCN(CC)C(=O)Cn1cc(SCC(=O)Nc2ccccc2F)c2ccccc21,inactive: 112%
6,CCOC(=O)c1ccc2c(c1)N(CC(=O)Nc1ccc(C)cc1C)C(=O)c1ccccc1S2,inactive: 121%
7,O=C(c1ccc2c(c1)N(Cc1ccc(Cl)cc1)C(=O)c1ccccc1S2=O)N1CCN(c2ccccc2F)CC1 (centres undefined),inactive: 86%
8,COc1ccc(-c2nc(C(N)=O)c3c(n2)n(-c2ccccc2OC)c(=O)n3C)c(OC)c1,inactive: 99%
9,CC(C)NC(=O)CC(=O)Nc1ccc2nc3n(c(=O)c2c1)CCCCC3,inactive: 75%
10,O=C(NC1CCCCCC1)c1cc2c(Cl)nc3ccccc3c2s1,inactive: 123%
11,CCOc1ccccc1NC(=O)C(NS(=O)(=O)c1ccc2c(c1)CCC(=O)N2)c1ccccc1 (centres undefined),inactive: 76%
12,CSc1cccc(NC(=O)C2CCN(c3ncnc4c3nc3n4CCCCC3)CC2)c1,inactive: 89%
13,O=C(c1ccc(F)cc1)N1CCC(c2nc3ccccc3o2)CC1,inactive: 81%
14,O=C(O)c1cccc2cc[nH]c12,inactive: 102%
15,O=C(CCC(=O)N1CC2CCCN2c2ccccc21)NCc1ccccc1 (centres undefined),inactive: 88%
16,COc1ccc(CNC(=O)c2ccc3c(c2)N(C)C(=O)C2CCCCN32)cc1OC (centres undefined),inactive: 59%
17,CC(C)(C)c1ccc(Oc2nc3ccccn3c(=O)c2/C=C(\C#N)c2nc3ccccc3[nH]2)cc1,inactive: 82%
18,CCOc1ccc(CC(=O)NCCc2csc(-c3ccc(C(F)(F)F)cc3)n2)cc1,inactive: 90%
19,Cc1nn(-c2ccccc2)c(=O)c2ccccc12,inactive: 98%
20,Cc1nn(C(=O)COc2ccccc2)c(C)c1Sc1ccccc1,inactive: 94%
21,CCCCOc1ccc(C(=O)N2CCC(c3nc4ccccc4o3)CC2)cc1,inactive: 79%
22,CCOC(=O)c1ccc(NC(=O)C2=C(C)Nc3nc(SCc4ccc(Cl)cc4)nn3C2c2ccc(C)cc2)cc1 (centres undefined),inactive: 86%
23,COc1ccc(OC)c(NC(=O)CSc2nc(-c3ccccc3C)nc3cc(=O)[nH]n23)c1,inactive: 60%

row,Structure (SMILES),survival
1,COC(=O)c1sc2cccc(F)c2c1S(=O)(=O)N1CCN(c2ccccc2OC)CC1,inactive: 47%
2,CC1CCN(C(=O)CN2CCSc3ccccc32)CC1,inactive: 73%
3,CC(NC(=O)c1nn(C)c2c1CSc1ccccc1-2)c1ccccc1 (centres undefined),inactive: 87%
4,CCN(CC)c1ccc(C(=O)NCCN)cc1,inactive: 106%
5,O=C(Nc1ccc(SC(F)F)cc1)c1cc(-c2cccs2)on1,inactive: 91%
6,CCOc1ccc(C(=O)Nc2nnc(S(=O)(=O)N(CC)c3ccccc3C)s2)cc1,inactive: 72%
7,CC(=O)c1cccc(NC(=O)CCCN2C(=O)COc3ccc(C)cc32)c1,inactive: 124%
8,O=C(NCCc1ccccc1)c1ccc2c(c1)CCN2S(=O)(=O)c1ccc(Br)cc1,inactive: 90%
9,Cc1ccc(-c2cc(NC(=O)C(C)Oc3ccc(C)c(C)c3)on2)cc1 (centres undefined),inactive: 123%
10,Cc1[nH]c2ccccc2c1/C=N\NC(=O)Cn1nnc(-c2ccccc2)n1,inactive: 103%
11,COc1ccc(CNc2ccc3cc(S(=O)(=O)N4CCCCC4)ccc3n2)cc1,inactive: 63%
12,Cc1ccc(C)c(NC(=O)CN2C(=O)CSc3nc(C)cc(C)c32)c1,inactive: 81%
13,O=C(Cc1ccccc1)Nc1c(C(=O)N2CCN(c3ccc(F)cc3)CC2)oc2ccccc12,inactive: 22%
14,COc1ccc(N2CC(c3nc(-c4cc(OC)c(OC)c(OC)c4)no3)CC2=O)cc1Cl (centres undefined),inactive: 128%
15,O=C(CCS(=O)(=O)c1cccs1)Nc1ccc(C(=O)Nc2cccc(Cl)c2)cc1,inactive: 89%
16,COc1cc(OC)cc(C(=O)N2CCC(c3ccncc3)CC2)c1,inactive: 69%
17,CCC(=O)N1CCCc2cc(S(=O)(=O)N3CCC(C(=O)Nc4ccc(F)c(F)c4)CC3)ccc21,inactive: 135%
18,CCNc1nc2c(c(=O)[nH]c(=O)n2C)n1CC(O)COc1ccc(Cl)cc1Cl (centres undefined),inactive: 160%
19,Cc1cc(C)c2c(=O)c3c(oc2c1)C(=O)N(Cc1ccc(F)cc1)C3c1cccc(O)c1 (centres undefined),inactive: 64%
20,CC(C)(C)CC(=O)Nc1nnc2n1CCS2,inactive: 92%
21,COc1cccc(NC(=O)CN2CCCN(S(=O)(=O)c3ccc(Br)cc3)CC2)c1,inactive: 66%
22,COc1ccc(Cn2ccnc2SCC(=O)Nc2ccc(C)cc2C)cc1,inactive: 68%
23,Cc1ccc(CNC(=O)CN(c2ccc(C(C)C)cc2)S(=O)(=O)c2c(C)n[nH]c2C)cc1,inactive: 72%

row,Structure (SMILES),survival
1,COc1ccccc1CNC(=O)CN1C(=O)CSc2c1c(C)nn2-c1ccccc1,inactive: 70%
2,O=C(NCCSCc1c(F)cccc1Cl)C1CCN(S(=O)(=O)Cc2ccccc2)CC1,inactive: 87%
3,O=C(COc1ccc(Cl)cc1)Nc1ccccc1C(=O)OCc1cc(=O)n2ccsc2n1,inactive: 76%
4,CCCC(=O)NCC(c1ccc2c(c1)OCO2)N1CCOCC1 (centres undefined),inactive: 83%
5,CC(=O)c1ccc(NS(=O)(=O)c2cc3[nH]c(=O)c(=O)[nH]c3cc2C)cc1,inactive: 131%
6,COc1ccc(S(=O)(=O)NCCc2nnc3ccc(SCC(=O)Nc4ccc(C(F)(F)F)cc4)nn23)cc1,inactive: 87%
7,Cc1ccc(C)c(N2CCN(C(=O)Cn3ncc4c(=O)oc5ccc(C)cc5c43)CC2)c1,inactive: 79%
8,CCOc1ccccc1CNc1ncnc2c1nc1n2CCCC1,inactive: 79%
9,CSc1ccc(CCNC(=O)CCc2c(C)nc3c(-c4ccccc4)c(C)nn3c2C)cc1,inactive: 74%
10,Cc1ccccc1Cn1nc(C)c(NC(=O)c2cc(-c3ccc(F)cc3)on2)c1C,inactive: 79%
11,CCCn1c(=N)c(C(=O)NCc2cccnc2)cc2c(=O)n3cc(C)ccc3nc21,inactive: 84%
12,COc1cccc(/C=C/c2nc(C#N)c(N3CCCCC3)o2)c1,inactive: 67%
13,O=C(c1cnc2cc(-c3ccccc3)nn2c1)c1cc([N+](=O)[O-])ccc1O,active: 19%
14,CC1(N2CCOCC2)CC(=O)N(c2ccccc2)O1 (centres undefined),inactive: 112%
15,O=C(C1CCCN(S(=O)(=O)c2cccc3nonc23)C1)N1CCN(c2cccc(Cl)c2)CC1 (centres undefined),inactive: 55%
16,CCc1ccc(CSc2nc(-c3ccccc3OC)nc3c2Cc2c(CO)cnc(C)c2O3)cc1,inactive: 121%
17,CCc1ccc(NC(=O)c2cc(-c3cccs3)on2)cc1,inactive: 140%
18,O=C(CN1CCSc2ccccc21)N1CCN(c2ccccc2)CC1,inactive: 126%
19,CCn1cc(C2N3CC4(CC)CN2CC(CC)(C3)C4=O)c2ccccc21 (centres undefined),inactive: 81%
20,CCOC(=O)c1c(NC(=O)/C=C/c2ccc(OC)c(OC)c2)sc(C(C)=O)c1C,inactive: 145%
